Laboratory results reported in publication PMC4214795.
Results are given in words; binding and its absence hold for the method and conditions named. For part of these data: Binding seen in cells or lysates may run through a third protein. Some entries that bind do so weakly or less than the wild type. Tags and fused reporters may be left off the sequences shown.

The chains behind the UniProt entries cited, without tags or fusion partners.
UniProt P53350: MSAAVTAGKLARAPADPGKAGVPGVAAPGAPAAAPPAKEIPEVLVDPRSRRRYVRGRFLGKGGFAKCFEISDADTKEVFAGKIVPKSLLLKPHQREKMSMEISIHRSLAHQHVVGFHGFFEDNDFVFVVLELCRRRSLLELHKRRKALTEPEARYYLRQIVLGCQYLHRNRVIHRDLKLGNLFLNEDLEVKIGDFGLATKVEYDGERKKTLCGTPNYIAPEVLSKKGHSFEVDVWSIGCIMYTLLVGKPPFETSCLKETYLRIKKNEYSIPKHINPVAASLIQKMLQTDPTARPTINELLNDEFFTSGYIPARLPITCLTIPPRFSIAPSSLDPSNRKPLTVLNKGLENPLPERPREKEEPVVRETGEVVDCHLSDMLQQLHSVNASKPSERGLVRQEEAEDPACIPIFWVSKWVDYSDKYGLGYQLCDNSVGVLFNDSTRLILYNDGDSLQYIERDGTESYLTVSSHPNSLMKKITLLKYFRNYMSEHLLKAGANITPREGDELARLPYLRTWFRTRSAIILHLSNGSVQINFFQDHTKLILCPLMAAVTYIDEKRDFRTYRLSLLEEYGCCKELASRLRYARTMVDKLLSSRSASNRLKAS

Experiments:
[1] = biological target: T1, Plo1p (wild-type), LexA DNA binding domain fusion (S. pombe) (UniProt P50528); assay: two-hybrid; bait fused to LexA DNA binding domain (Plo1p or Ark1p), prey ESCRT proteins fused to GAL4 transcription activation domain; budding yeast with LEXA-galactosidase readout; three days on selective medium, X-gal overlay; qualitative
T1 sequence: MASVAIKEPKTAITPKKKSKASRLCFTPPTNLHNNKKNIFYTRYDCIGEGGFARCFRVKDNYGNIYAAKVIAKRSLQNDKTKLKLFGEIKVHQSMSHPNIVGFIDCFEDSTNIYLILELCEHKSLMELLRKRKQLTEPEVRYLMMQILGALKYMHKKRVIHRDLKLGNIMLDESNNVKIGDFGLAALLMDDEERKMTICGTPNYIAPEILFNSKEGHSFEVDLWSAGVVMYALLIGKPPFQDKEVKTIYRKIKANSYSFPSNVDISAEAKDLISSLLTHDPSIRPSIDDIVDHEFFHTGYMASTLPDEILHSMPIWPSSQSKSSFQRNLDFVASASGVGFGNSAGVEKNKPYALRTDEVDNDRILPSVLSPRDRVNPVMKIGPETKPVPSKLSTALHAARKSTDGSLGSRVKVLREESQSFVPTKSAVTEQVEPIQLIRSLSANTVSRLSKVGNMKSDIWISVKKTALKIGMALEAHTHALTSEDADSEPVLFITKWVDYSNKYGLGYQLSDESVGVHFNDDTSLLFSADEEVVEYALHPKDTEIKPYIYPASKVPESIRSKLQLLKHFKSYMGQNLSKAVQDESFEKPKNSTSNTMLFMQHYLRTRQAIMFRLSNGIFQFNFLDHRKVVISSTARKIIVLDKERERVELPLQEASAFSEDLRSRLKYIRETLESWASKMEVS

[2] = biological target: T2, Clp1aa.1-371, GAL4 DNA binding domain fusion (S. pombe) (UniProt Q9P7H1); assay: two-hybrid; bait Clp1p fused to GAL4 DNA binding domain, prey ESCRT proteins fused to GAL4 transcription activation domain; budding yeast with GAL4-galactosidase readout; X-gal overlay; interaction read from the lack of transcriptional readout of the auto-activating bait Clp1aa.1-371
T2 sequence: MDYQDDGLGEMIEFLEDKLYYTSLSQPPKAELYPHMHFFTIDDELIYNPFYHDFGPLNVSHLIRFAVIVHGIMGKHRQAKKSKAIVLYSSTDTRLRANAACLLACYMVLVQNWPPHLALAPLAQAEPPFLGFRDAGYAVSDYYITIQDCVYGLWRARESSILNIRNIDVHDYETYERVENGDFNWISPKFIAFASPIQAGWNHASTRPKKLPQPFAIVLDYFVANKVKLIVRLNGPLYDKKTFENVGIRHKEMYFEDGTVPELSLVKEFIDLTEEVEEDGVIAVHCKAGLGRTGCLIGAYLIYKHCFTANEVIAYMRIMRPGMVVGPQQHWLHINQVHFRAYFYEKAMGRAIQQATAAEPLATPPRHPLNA

[3] = biological target: Human polo-like kinase 1 (Plk1) (human) (UniProt P53350); assay: co-IP; HEK293 cells transfected with tagged ESCRT proteins; 1 mg lysate with 12.8 ug anti-Plk1 antibody overnight at 4 C, Protein A sepharose; washes with 100 mM KCl and with 250 mM NaCl, 1% Triton X-100; immunoblot with anti-GFP or anti-myc

B1: Sst4p (ESCRT-0), GAL4 transcription activation domain fusion (protein, UniProt O13821 1-610)
chain: MSRWWNSNSQFASDIEKATSETLPAGSEEISLYLEISDQIRSKSVDPKFAMRILKSRIDHSNPNVQIMALKLTDTCVKNGGSGFLLEIASREFMDNLVSILRSPAGIDEDVKMVILRYIQSWALAVPDTNSPLSYIIHVYQNLKDGDYEFPEPSQNITSKFLDTETPPDWTDSEVCLRCRTPFTFTNRKHHCRNCGGVFCNQCSSKTLSLPHLGINQPVRVCDSCYSLRTKPKGSKSRARNERKFHAKTRKTPSKPVTNNEDEDIKRAIELSLKEMPQSREPPSYERPSEANVVISQDQHLTEDEDEELKRAIAISLEEAQKSSQKDDNVTAPNNMNISYPSVPAHTVSTDIRSSPFSGRPSDNPSTLISTADADNITLYATLVQKLKKLPPGSIFTEYQLQELHENMGVMRTRMMRSLGETMSKYNGLIQALQKLQTCMRLNDALIEQRLSSTYAHHYIDSSMDSNRSIEPEPDVISTVRNSSTIPQASSSSVPKIVVDSSPVTENPPSHSDVMGQKDTISSYYSTDTDVSANVMGNRHDEVVFSDTASGEKNTKLNIDESTNYYNTDSIDKVGEPFDEISSGYDDLMNGNDKQGNDIPEVQEASLIEL
For B1, the binding [1] was “binds” and the binding [2] was “no binding”.

B2: CHMP4B-YFP (protein, UniProt Q9H444 1-224)
chain: MSVFGKLFGAGGGKAGKGGPTPQEAIQRLRDTEEMLSKKQEFLEKKIEQELTAAKKHGTKNKRAALQALKRKKRYEKQLAQIDGTLSTIEFQREALENANTNTEVLKNMGYAAKAMKAAHDNMDIDKVDELMQDIADQQELAEEISTAISKPVGFGEEFDEDELMAELEELEQEELDKNLLEISGPETVPLPNVPSIALPSKPAKKKEEEDDDMKELENWAGSM
In the case of B2, the binding [3] is reported as “binds”.

B3: CHMP3-myc (protein, UniProt Q9Y3E7 1-222)
chain: MGLFGKTQEKPPKELVNEWSLKIRKEMRVVDRQIRDIQREEEKVKRSVKDAAKKGQKDVCIVLAKEMIRSRKAVSKLYASKAHMNSVLMGMKNQLAVLRVAGSLQKSTEVMKAMQSLVKIPEIQATMRELSKEMMKAGIIEEMLEDTFESMDDQEEMEEEAEMEIDRILFEITAGALGKAPSKVTDALPEPEPPGAMAASEDEEEEEEALEAMQSRLATLRS
For B3, the binding [3] was “binds”.

B4: CHMP2A-GFP (protein, UniProt O43633 1-222)
chain: MDLLFGRRKTPEELLRQNQRALNRAMRELDRERQKLETQEKKIIADIKKMAKQGQMDAVRIMAKDLVRTRRYVRKFVLMRANIQAVSLKIQTLKSNNSMAQAMKGVTKAMGTMNRQLKLPQIQKIMMEFERQAEIMDMKEEMMNDAIDDAMGDEEDEEESDAVVSQVLDELGLSLTDELSNLPSTGGSLSVAAGGKKAEAAASALADADADLEERLKNLRRD
For B4, the binding [3] was “binds”.

B5: Vps28p (ESCRT-I), GAL4 transcription activation domain fusion (protein, UniProt O13872 1-248)
chain: MTEYYDLNLLEKETSEENNFHTKNQQVREDLSILYSILVALEQLEKAFTKDAVSTSDFNSTCELLIQQWESCFSDERVTQAFGSFEDFCSKYRLQCPRAIKRIQEGISDERSQSNSTFSNAISTTAEPSIAMNDTTPQTVNPTKAPSNPSASIAKSIAGLVQNFITTLDAIRLNFIAKDQLHPLLSELIVSMDDLTESLKIQVSCRNKLVQWLIKINNMNITDQLNDVEKRELLYDLEQAYAECYSLL
With B5 the binding [1] was “binds” and the binding [2] was “binds”.

B6: Vps25p (ESCRT-II), GAL4 transcription activation domain fusion (protein, UniProt O74967 1-175)
chain: MRVPSIYNFPPFFTRQLNDNTWHSQKAAWQMWILLWCRENRQTSITINPELLESSLLHNSTIHRTLPLSVFREIVEDMVKQNLAEWTEKRNPKDVFWVYWRSISEWGNMILKWLSDMGREGSICTFYELQEQYKEVDCLDEVLLHKVLELLMKKGNIELMKGSSGKYSGFKVLKA
For B6, the binding [1] was “binds” and the binding [2] was “no binding”.

B7: CHMP6-GFP (protein, UniProt Q96FZ7 1-201)
chain: MGNLFGRKKQSRVTEQDKAILQLKQQRDKLRQYQKRIAQQLERERALARQLLRDGRKERAKLLLKKKRYQEQLLDRTENQISSLEAMVQSIEFTQIEMKVMEGLQFGNECLNKMHQVMSIEEVERILDETQEAVEYQRQIDELLAGSFTQEDEDAILEELSAITQEQIELPEVPSEPLPEKIPENVPVKARPRQAELVAAS
For B7, the binding [3] was “binds”.

B8: Sst6p (ESCRT-I), GAL4 transcription activation domain fusion (protein, UniProt Q7Z992 1-487)
chain: MSDHAINEHPSRILNTIEKIRFWKNGLAEELELLFRKQCEDTFTLQAINIEVDTQDENKIEEVRIYLSTPAFDKTILTSACITVRSYYPSQPPIVQLLDEKGGKHKYTSLLLQLWKNERSVFNIYRLVQALIKQDFEREHTSPPELPTKLVNTIEKLKVKEENEAPPVIPAKPFSSSSEQHFRKVPALPSKLPPKPLKITANSSLGQETNSNSSSFQSTLFSLNTAPFSATSQQLVHDSVSLRRPSSNIPAQKPIPPKPEQNEIIITKDTPSLKDKYSKPALLPQKPKVSKGQIVQQVSVFSTGKKIESQSLLNLIDTDIETPLKGSSELLYSEDFKPNVDPVKIQQILHKQNKIIEEKWISQIRISKNLEVKQRLLDQERHALETLAKNIENNRFILGKRRRKAREALQKLDNLKDLSVQELFIIPSERELKYYELKRKDEKLDEGIRALNQALHHESIMPASWLKGIKLLARQQFLIRDEMLQYS
B8 was tested, and the binding [1] was “no binding” and the binding [2] was “no binding”.

B9: Vps2p (ESCRT-III), GAL4 transcription activation domain fusion (protein, UniProt O14177 1-210)
chain: MGLTSWLFGGGKSPQEQLRAHQRSLGRAERELDRERTKLDQRERALIQEIKGSAKAGNTGAARIQARDLMRLRNSRKKMMNAKTQLQAISLRLQTMRTSEQMMQSMRGATRLLTGMNKSMNIPAMARITQQFERENEIMEQRQEMIDENMDDALEEDDEEEADELVNKVLDEIGVDLSQGLPDAATQIGTVPELKTEDNLQARLDELAKR
For B9, the binding [1] was “no binding” and the binding [2] was “no binding”.

B10: Vps4p, GAL4 transcription activation domain fusion (enzyme, UniProt Q09803 1-432)
chain: MSNPDCLSKAISLVKTAIDNDNAEQYPDAYKYYQSALDYFMMALKYEKNEKSKEIIRSKVIEYLDRAEKLKVYLQEKNNQISSKSRVSNGNVEGSNSPTANEALDSDAKKLRSALTSAILVEKPNVRWDDIAGLENAKEALKETVLLPIKLPQLFSHGRKPWSGILLYGPPGTGKSYLAKAVATEAGSTFFSISSSDLVSKWMGESERLVRQLFEMAREQKPSIIFIDEIDSLCGSRSEGESESSRRIKTEFLVQMNGVGKDESGVLVLGATNIPWTLDSAIRRRFEKRIYIPLPNAHARARMFELNVGKIPSELTSQDFKELAKMTDGYSGSDISIVVRDAIMEPVRRIHTATHFKEVYDNKSNRTLVTPCSPGDPDAFESSWLEVNPEDIMEPKLTVRDFYSAVRKVKPTLNAGDIEKHTQFTKDFGAEG
In the case of B10, the binding [1] is reported as “no binding” and the binding [2] is reported as “no binding”.

B11: Vps36p (ESCRT-II), GAL4 transcription activation domain fusion (protein, UniProt O43038 1-467)
chain: MAFYLETTPSNLPVLDPSEEILLVQDQVGLYFGDEKSFRHNNGTLYLTKKHIFYVDSVDPKKNSLKIKISDIRDVQHTSRYFRSSPKIRLSLRHVEKSWACKICTFINVGDPINPCRNCGVANRFTIIKPKSDARFSQGLCTACTFQNYPDLNTCEICGNQLKNVDRNQLIQLSFRGSGSSKFYEAIKSETDEIEKQRYSNKYDTKVLRKAILEKSLRMGGIHDLEQSHEMQLAKNGRTLVHAFQDLDAFFSLAKDTMSLADQFAEKMDGLTGTQQSDKVQQLLNKSNQLGVLRGNHLDNVPVSANSRLYDIELCKSISEVLRTRLKADTDTVTMTQAWAIYNRSRKANLIPPTRFVKACELIDSMEVGITTSKMNSGLILFQLKTSNHSGKLLSAILEVMNPSTTALKCAMRLHWSIGVTLERLYQAEMDGYIVRDVYEESGSSLLYWKNEFDELSEELTKWFDES
For B11, the binding [1] was “no binding” and the binding [2] was “no binding”.
